# Measurements reported in paper PMC4336329 (PLoS ONE, 2015).
# Out of some 310,000 compounds screened, about 2,200 (0.71%) showed an effect of 50% or more. The effect is printed as a negative number. Some of the results follow.
# Target: human ether-à-go-go-related gene (hERG) potassium channel (human, UniProt Q12809)
# Assay: primary screen, population patch clamp on CHO cells stably expressing hERG
# human ether-à-go-go-related gene (hERG) potassium channel, sequence (Q12809 whole entry, looked up): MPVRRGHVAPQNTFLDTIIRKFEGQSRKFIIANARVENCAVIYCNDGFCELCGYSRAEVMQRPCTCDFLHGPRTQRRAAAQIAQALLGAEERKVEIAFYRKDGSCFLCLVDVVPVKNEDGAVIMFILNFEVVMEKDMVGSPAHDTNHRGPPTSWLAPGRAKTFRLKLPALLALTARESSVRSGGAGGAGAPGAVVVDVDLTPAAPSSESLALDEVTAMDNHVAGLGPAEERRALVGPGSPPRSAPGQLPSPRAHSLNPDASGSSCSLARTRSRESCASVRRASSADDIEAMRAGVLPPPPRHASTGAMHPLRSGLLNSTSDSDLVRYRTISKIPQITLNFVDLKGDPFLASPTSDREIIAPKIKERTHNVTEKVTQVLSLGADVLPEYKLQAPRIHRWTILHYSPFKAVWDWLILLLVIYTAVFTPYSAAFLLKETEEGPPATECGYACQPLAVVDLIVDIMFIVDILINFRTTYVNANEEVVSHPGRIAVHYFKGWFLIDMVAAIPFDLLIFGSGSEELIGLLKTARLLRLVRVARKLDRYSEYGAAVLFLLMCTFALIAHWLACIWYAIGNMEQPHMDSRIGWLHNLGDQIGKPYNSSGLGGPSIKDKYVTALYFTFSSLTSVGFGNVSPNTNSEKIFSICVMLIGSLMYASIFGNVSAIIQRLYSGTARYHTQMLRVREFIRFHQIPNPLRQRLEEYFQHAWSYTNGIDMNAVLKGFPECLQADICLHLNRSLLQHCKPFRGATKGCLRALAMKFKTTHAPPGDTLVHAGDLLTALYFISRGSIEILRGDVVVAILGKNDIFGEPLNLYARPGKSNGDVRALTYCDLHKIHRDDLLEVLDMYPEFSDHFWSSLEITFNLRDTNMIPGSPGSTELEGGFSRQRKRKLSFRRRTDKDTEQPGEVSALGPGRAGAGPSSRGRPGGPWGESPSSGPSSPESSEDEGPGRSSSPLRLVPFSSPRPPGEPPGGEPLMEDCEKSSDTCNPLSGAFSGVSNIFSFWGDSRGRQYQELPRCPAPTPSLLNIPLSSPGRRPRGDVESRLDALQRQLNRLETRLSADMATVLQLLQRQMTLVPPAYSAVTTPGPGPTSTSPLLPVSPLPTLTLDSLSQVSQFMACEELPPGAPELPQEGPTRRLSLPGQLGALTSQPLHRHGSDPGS
row,SMILES,"hERG current change (%, negative = inhibition) at 1uM"
1,COC(=O)c1ccc(CNCC(=O)Nc2ccc(C(=O)OC)cc2)cc1,9.02%
2,CN(C)c1ccc(CC2C(=O)Nc3ccccc32)cc1 (stereo not shown),5.22%
3,FC(F)(F)c1cccc(N2CCN(Cc3ccoc3)CC2)c1,-13.1%
4,O=C(CSc1nc2ccccc2c(=O)n1-c1ccc(F)c(Cl)c1)Nc1cccc(S(=O)(=O)N2CCOCC2)c1,10.9%
5,Cc1cccc(NC(=O)COC(=O)CCc2ccc(S(=O)(=O)N3CCOCC3)cc2)c1C,9.84%
6,COc1cc(N(C)C)c([N+](=O)[O-])cc1C(=O)N1CCOCC1,6.64%
7,Cc1occc1C(=O)NNC(=O)C(c1ccccc1)c1ccccc1,10.6%
8,O=C(OCc1nnc(-c2cccs2)o1)c1cccnc1Cl,13.1%
9,COc1ccc(S(=O)(=O)N2CCOC2CNC(=O)C(=O)NCCN(C)C)cc1 (stereo not shown),12%
10,O=C(c1ccc(Br)cc1)c1cc([N+](=O)[O-])ccc1N1CCOCC1,7.76%
11,Cc1noc(/C=C/N(C)C)c1S(=O)(=O)N1CCCC(C(=O)Nc2ccccc2F)C1 (stereo not shown),8.7%
12,COc1ccc(-n2c(=O)c3c4c(sc3n3c(=S)[nH]nc23)CCCC4)cc1,8.8%
13,COc1ccc(-c2noc(CSc3nc(N)cc(=O)[nH]3)n2)cc1,9.84%
14,Cc1nc([N+](=O)[O-])c(Sc2nc3ccc([N+](=O)[O-])cc3[nH]2)n1Cc1ccccc1,-18.1%
15,O=C1c2ccccc2C(=O)N1CCOc1cccc(Br)c1,14%
16,COc1cc(C(=O)Nc2c(C)cc(C)cc2C)c(-n2cnnn2)cc1OC,2.15%
17,CCCC(C(=O)Nc1cc(S(=O)(=O)N2CCOCC2)ccc1OC)c1ccccc1 (stereo not shown),9.49%
18,Cc1[nH]c(C)c(S(=O)(=O)N2CCCCC2)c1C(=O)N1CCCC1,6.23%
19,COc1cccc(CN2CCNC(=O)C2CC(=O)NC2Cc3ccccc3C2)c1 (stereo not shown),4.88%
20,CCc1ccc(CN(C(=O)c2cccs2)C2CCS(=O)(=O)C2)cc1 (stereo not shown),-13.4%
21,COc1ccc(F)cc1C(=O)C1CCCN(C(=O)CCN2CCCCO2)C1 (stereo not shown),19.4%
22,Cc1ccccc1NC(=O)c1ccc(CN2CCc3ccccc3C2)cc1,-9.22%

row,SMILES,"hERG current change (%, negative = inhibition) at 1uM"
1,CC1CCc2[nH]c3ccc(C(=O)N(C)CC(=O)Nc4ccc(F)cc4)cc3c2C1 (stereo not shown),2.75%
2,CCOC(=O)C1CCN(C(=O)Cc2ccc(OC)c(OC)c2)CC1,7%
3,CC(=O)Oc1ccc(C(=O)Nc2cccc(C(=O)NC(C)(C)C)c2)cc1,14%
4,CC(C)N1C(=O)NC2(c3ccccc3)N(C)C(=O)N(C)C12c1ccccc1 (stereo not shown),3.38%
5,O=C(NCCc1ccc(Cl)cc1)c1cc(S(=O)(=O)N2CCCCC2)c[nH]1,15.8%
6,O=C(Cc1ccccc1[N+](=O)[O-])NC1CC1,10.4%
7,O=C(OCc1ccccc1)/C(=C/c1ccc(Cl)cc1)NC(=O)c1ccccc1Cl,5.89%
8,O=C(NCCc1ccccc1)C1CCN(S(=O)(=O)c2ccc(-c3nn[nH]n3)cc2)CC1,-13.3%
9,CN1CCN(C(=O)c2ccc(CNS(=O)(=O)c3cccc(Cl)c3)cc2)CC1,-1.64%
10,Cc1ccccc1Cn1c(=O)n(CC2CCC(C(=O)NCCc3ccccc3)CC2)c(=O)c2ccccc21 (stereo not shown),11.8%
11,COc1ccc(CNC(=O)C2CSC(=O)C2)cc1 (stereo not shown),8.88%
12,COC(=O)c1ccc2c(=O)n(CCCCCC(=O)NCc3ccccc3)c(=O)[nH]c2c1,-7.36%
13,NS(=O)(=O)c1ccc(N/N=C/c2ccccc2Br)cc1,15%
14,Cc1cc(C)n2c(SCC(=O)Nc3ncc(C(F)(F)F)cc3Cl)nnc2n1,-2.23%
15,O=C1CC(C(=O)O)(c2ccccc2)c2cccc(F)c21 (stereo not shown),11%
16,CCc1cc(C(=O)NC2CCCN(Cc3ccccc3F)C2)n(C)n1 (stereo not shown),8.32%
17,Nc1nc(-c2ccc3ccccc3c2)cs1,11.8%
18,N=c1c(S(=O)(=O)c2ccc(Cl)cc2)cc2c(=O)n3ccccc3nc2n1Cc1cccnc1,7.26%
19,O=C(CN1C(=O)c2ccccc2C1=O)NN1C(=O)c2ccccc2C1=O,4.36%
20,CCCCn1c(-c2ccco2)nc2ccccc2c1=O,12.4%
21,O=C(Nc1ccc(Cl)c(Cl)c1)OCc1cccnc1,25.1%
